# In all, about 310,000 compounds went through this assay and about 2,200 (0.71%) showed an effect of 50% or more. Effects have a minus sign here. The list shows a part of the results.
# Target: human ether-à-go-go-related gene (hERG) potassium channel (human, UniProt Q12809)
# Assay: primary screen, population patch clamp on CHO cells stably expressing hERG
# Sequence of human ether-à-go-go-related gene (hERG) potassium channel (Q12809 whole entry, looked up): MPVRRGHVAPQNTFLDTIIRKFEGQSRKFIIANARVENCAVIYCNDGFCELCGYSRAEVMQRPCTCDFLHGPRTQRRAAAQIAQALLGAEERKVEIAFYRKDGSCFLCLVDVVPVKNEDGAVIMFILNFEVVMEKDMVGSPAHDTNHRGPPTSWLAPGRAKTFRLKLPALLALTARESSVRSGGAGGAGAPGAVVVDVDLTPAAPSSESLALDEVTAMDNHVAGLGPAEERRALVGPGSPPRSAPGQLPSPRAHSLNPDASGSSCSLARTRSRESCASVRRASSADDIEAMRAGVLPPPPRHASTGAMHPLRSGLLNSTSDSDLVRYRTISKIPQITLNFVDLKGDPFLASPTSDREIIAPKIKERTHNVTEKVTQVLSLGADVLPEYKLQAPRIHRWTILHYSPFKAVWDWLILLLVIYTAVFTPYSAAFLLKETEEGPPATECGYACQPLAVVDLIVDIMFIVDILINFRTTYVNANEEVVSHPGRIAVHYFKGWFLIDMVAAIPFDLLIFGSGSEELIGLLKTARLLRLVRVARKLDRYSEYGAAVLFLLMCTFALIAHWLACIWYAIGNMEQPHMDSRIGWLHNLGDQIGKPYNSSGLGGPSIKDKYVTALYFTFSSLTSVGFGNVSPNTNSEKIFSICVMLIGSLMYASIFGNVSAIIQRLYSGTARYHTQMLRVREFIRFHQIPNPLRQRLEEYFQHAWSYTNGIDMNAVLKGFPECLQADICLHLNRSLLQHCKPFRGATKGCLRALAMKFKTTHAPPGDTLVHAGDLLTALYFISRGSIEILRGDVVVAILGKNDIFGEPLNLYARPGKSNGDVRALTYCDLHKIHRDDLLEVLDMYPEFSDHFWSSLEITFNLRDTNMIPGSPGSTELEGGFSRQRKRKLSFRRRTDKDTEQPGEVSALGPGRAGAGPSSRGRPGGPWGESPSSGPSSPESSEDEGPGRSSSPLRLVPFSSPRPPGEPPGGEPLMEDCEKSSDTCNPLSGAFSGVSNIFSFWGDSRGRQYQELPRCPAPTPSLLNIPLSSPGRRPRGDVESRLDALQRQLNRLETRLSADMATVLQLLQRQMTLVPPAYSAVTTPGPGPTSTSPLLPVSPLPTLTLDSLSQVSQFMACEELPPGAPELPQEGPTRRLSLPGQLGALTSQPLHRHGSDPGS
row,Structure (SMILES),"hERG current change (%, negative = inhibition) at 1uM [%]"
1,Nc1cc(=O)[nH]n1C1CCN(c2ccccc2)CC1,16.5
2,CCC(Sc1ncccc1C(=O)OC(C)C)C(=O)NCc1ccco1 (stereo not drawn),-0.195
3,CC(=O)Nc1cccc(NC(=O)c2ccc([N+](=O)[O-])cc2Cl)c1,8.24
4,CC(C)c1ccc(NC(=O)C2CC(=O)N(C(C)C)C2)cc1 (stereo not drawn),11.3
5,Cc1cc(C(=O)NCc2cccnc2)no1,3.74
6,C[C@]1(C2CCCC2)Cc2cc(OCC(=O)O)c(Cl)c(Cl)c2C1=O,3.75
7,CC1CC(C)CN(C(=O)COC(=O)c2nn(C)c(=O)c3ccccc23)C1 (stereo not drawn),2.99
8,COc1cccc(NC(=O)CN(C)C(=O)CC2CC3CCC2C3)c1 (stereo not drawn),4.58
9,Cc1cc2ccccc2n1CCNC(=O)c1ccccc1,12.1
10,CCOC(=O)c1ccc(NC(=O)Nn2cnnc2)cc1,20.2
11,CCOc1ccc(NC(=O)CC2C(=O)N(c3ccc(OC)cc3)C(=O)N2CCc2ccc(OC)c(OC)c2)cc1 (stereo not drawn),2.15
12,Cc1oc(-c2cccs2)nc1CSCC(=O)NC1CC1,3.5
13,CN(Cc1ccc(Cl)cc1Cl)C(=O)c1cc(=O)c2ccccc2o1,-6.55
14,COc1cc([N+](=O)[O-])cc(/C=N/NC(=O)Cn2nccc2C)c1O,3.73
15,Cc1sc(NC(=O)C2=COCCO2)c(C#N)c1C,12.8
16,CC12CCC(c3c(C(=O)N4CCOCC4)nn(-c4ccccc4)c31)C2(C)C (stereo not drawn),-5.53
17,CCC(C(=O)OC)n1cnc2scc(-c3ccc(C)c(C)c3)c2c1=O (stereo not drawn),10.1
18,COC(=O)CCC(=O)Nc1ccc(N=Nc2ccccc2)cc1,-4.44
19,Cc1csc(NC(=O)c2c(-c3ccccc3)noc2C)n1,17

row,Structure (SMILES),"hERG current change (%, negative = inhibition) at 1uM [%]"
1,Cc1nnc(C)n1/N=C/C=C/c1ccccc1,11.5
2,CCS(=O)(=O)N1N=C(c2cccc(NS(C)(=O)=O)c2)CC1c1cccs1 (stereo not drawn),8.06
3,COc1ccc(CCC(=O)OCC(=O)Nc2c(C)nn(-c3ccccc3)c2C)cc1,5.46
4,Cl.Oc1cc2c(cc1O)C(c1ccccc1)CNCC2 (stereo not drawn),7.43
5,COc1ccc(NC(=O)c2nnn(Cc3ccc(SC)cc3)c2N)c(OC)c1,15
6,Cc1cc(C)n2nc[n+](C)c2n1.[I-],13.2
7,COc1ccc(/C=N/c2oc(C)c(C)c2C#N)c(OC)c1,15
8,COc1ccccc1N(C(=O)CNC(=O)c1ccco1)C(C(=O)NC1CCCCC1)c1ccncc1 (stereo not drawn),25.8
9,COc1ccc(-c2cc(C(=O)N/N=C/c3sccc3C)c3ccccc3n2)c(OC)c1,5.99
10,NC(=O)C1CCCN(C(=O)CCCNC(=O)c2ccc(Cl)cc2)C1 (stereo not drawn),15.5
11,COC(=O)[C@]1(C)N[C@H](c2ccc(-c3ccc(Cl)c(Cl)c3)cc2)[C@@H]2C(=O)N(C)C(=O)[C@@H]21.O=C(O)C(F)(F)F,9.12
12,CC(=O)OC(C(=O)NC1CCCCC1)c1ccccc1 (stereo not drawn),9.71
13,CN(CC(=O)NC1CCCCCC1)S(=O)(=O)c1cnc[nH]1,10.8
14,COCCN(C(=O)c1snc(C(N)=O)c1N)C(C(=O)NC1CCCC1)c1cc(OC)c(OC)c(OC)c1 (stereo not drawn),-9.21
15,CNC(=O)COC(=O)/C=C/c1cn(-c2ccccc2)nc1-c1ccc2c(c1)OCCO2,10.1
16,Cc1ccc(C(=O)Nc2ccc(N3CCOCC3)nc2)cc1,6.82
17,CCOC(=O)Cn1nc(C)c(NC(=O)COc2ccccc2)c1C,17.7
18,O=C(CSc1ncccn1)NC(=O)Cc1ccccc1,12
19,O=[N+]([O-])c1ccc(Oc2c(F)c(F)nc(N3CCCC3)c2F)cc1,11

row,Structure (SMILES),"hERG current change (%, negative = inhibition) at 1uM [%]"
1,O=C(NCc1cccs1)C1CCN(C(=O)NCc2ccccc2)CC1,11.5
2,Cc1cccc(C)c1NC(=O)Cn1c(=O)n(CCC(=O)NCc2ccco2)c(=O)c2sccc21,5.46
3,CCCN(Cc1nnc(-c2cccs2)o1)C(=O)c1cc(S(=O)(=O)N2CCOCC2)ccc1C,-2.82
4,CCOc1ccc(Br)cc1S(=O)(=O)N1CCSC1,-0.112
5,CCCCn1c(N)c(N(CCOC)C(=O)C2CCN(S(=O)(=O)c3ccc(F)cc3)CC2)c(=O)[nH]c1=O,5.48
6,O=C(NCC1CCCO1)c1sc(=S)n2c1[nH]c(=O)c1ccc(C(=O)N3CCCCC3)cc12 (stereo not drawn),10.7
7,CC1(NC(=O)CCc2ccccc2)CCN(CCCc2ccccc2)C1=O (stereo not drawn),7.28
8,COc1ccc(OC)c(C2NC(=O)NC(C)=C2C(=O)OC2CCCCC2)c1 (stereo not drawn),8.04
9,CNC(=S)SCCOc1ccccc1C,8.74
10,Cc1ccc(/C=C(\NC(=O)c2ccccc2)C(=O)N2CCCC2C(=O)O)cc1 (stereo not drawn),3.75
11,Cc1cc(-c2n[nH]c(=S)n2/N=C/c2ccc(C)o2)n[nH]1,11.1
12,N/C(=N\OC(=O)Cc1ccc([N+](=O)[O-])cc1)c1ccc([N+](=O)[O-])cc1,-6.81
13,CCC(C)(C)NC(=O)c1ccc(Sc2nncn2C)c([N+](=O)[O-])c1,8.02
14,CN(C)S(=O)(=O)c1cccc(NC(=O)CSc2nncn2C)c1,12.2
15,COc1ccc(Cl)cc1NC(=O)CN(C)C(=O)c1cc2c(s1)CCC(C)C2 (stereo not drawn),15
16,c1ccc(CCc2ccncc2)cc1,10.7
17,N/C(=N\O)c1ccc(NC(=O)c2cccs2)cc1,7.55
18,CCOC(=O)COc1ccccc1/C=N\NC(=O)c1cc2c(ccc3ccccc32)o1,9.86
19,COc1ccc(OCC(=O)N2CCN(S(=O)(=O)c3ccc(Cl)s3)CC2)cc1,0.551

# — article PMC4336329 (PLoS ONE, 2015)
